Screen size: about 310,000 compounds; about 2,200 (0.71%) showed an effect of 50% or more. Effects have a minus sign here. The list shows a part of the results.
target: human ether-à-go-go-related gene (hERG) potassium channel (human, UniProt Q12809); experiment: primary screen, population patch clamp on CHO cells stably expressing hERG
Sequence (Q12809 whole entry, looked up): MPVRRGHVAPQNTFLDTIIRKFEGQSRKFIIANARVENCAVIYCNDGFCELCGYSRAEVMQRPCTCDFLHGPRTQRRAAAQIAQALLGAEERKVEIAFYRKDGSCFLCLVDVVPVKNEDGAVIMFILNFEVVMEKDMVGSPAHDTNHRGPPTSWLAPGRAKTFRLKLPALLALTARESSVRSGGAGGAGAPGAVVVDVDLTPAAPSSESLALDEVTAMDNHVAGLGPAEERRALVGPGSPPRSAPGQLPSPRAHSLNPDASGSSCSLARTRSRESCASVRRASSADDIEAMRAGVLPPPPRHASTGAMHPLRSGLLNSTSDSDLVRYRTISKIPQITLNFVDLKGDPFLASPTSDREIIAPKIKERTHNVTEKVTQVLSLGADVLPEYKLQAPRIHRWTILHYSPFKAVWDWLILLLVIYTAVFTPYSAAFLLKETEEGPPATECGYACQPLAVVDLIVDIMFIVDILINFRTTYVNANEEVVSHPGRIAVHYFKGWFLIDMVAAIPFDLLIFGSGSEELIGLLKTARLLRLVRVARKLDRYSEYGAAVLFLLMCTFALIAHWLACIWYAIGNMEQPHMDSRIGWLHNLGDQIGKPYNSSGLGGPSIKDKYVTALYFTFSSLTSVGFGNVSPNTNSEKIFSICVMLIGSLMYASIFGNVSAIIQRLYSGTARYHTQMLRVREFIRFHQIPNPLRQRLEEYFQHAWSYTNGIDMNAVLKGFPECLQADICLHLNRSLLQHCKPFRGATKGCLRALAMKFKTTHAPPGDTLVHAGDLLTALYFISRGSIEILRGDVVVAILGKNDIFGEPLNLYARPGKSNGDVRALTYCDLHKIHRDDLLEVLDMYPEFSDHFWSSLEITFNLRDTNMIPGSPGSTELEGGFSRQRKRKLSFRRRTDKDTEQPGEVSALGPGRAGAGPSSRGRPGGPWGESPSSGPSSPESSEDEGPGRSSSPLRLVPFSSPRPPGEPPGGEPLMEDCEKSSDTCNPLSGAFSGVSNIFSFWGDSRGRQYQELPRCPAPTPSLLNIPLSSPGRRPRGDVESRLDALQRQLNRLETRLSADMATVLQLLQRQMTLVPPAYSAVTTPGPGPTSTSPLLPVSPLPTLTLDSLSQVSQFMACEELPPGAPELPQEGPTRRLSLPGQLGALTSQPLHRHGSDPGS

Point of comparison: CC(Oc1ccccc1)c1ccnc(N)n1 (stereo not shown), “hERG current change (%, negative = inhibition) at 1uM” value 16.6%. Against it:
- C/C(=N\NC(=O)c1ccc(N/N=C(\C)c2ccncc2)cc1)c1ccncc1.O=S(=O)(O)O — lower, 4.05%
- Cc1c(CCOC(=O)CC23CC4CC(CC(C)(C4)C2)C3)sc[n+]1Cc1ccc([N+](=O)[O-])cc1.[Br-] — lower, -18.7%
- COC(=O)Cn1nnc2c(cnn2-c2ccccc2)c1=O — lower, 7.23%
- CCC(=O)Nc1cc(C)c(NC(=O)c2ccco2)cn1 — lower, 15.8%
- Cc1ccc(N2C(=O)[C@@H]3C(c4ccc(F)cc4)=NO[C@@H]3C2=O)cc1 — lower, 9.2%
- COC(=O)c1nc2n(n1)C(c1ccc(OC)c(OC)c1)C(C(=O)OC1CCCCC1)=C(C)N2 (stereo not shown) — lower, 1.25%
- CSc1nncn1/N=C/c1ccc([N+](=O)[O-])cc1 — lower, 3.82%
- Cc1ccc(CSCC(=O)NCc2cccs2)cc1 — lower, 7.51%
- O=C(Nc1ccc2c(c1)OCCO2)c1cnc2n(c1=O)CCS2 — lower, 4.26%
- Cc1cc(C(F)F)n2nc(C(=O)Nc3ccc(S(=O)(=O)NC45CC6CC(CC(C6)C4)C5)cc3)nc2n1 — lower, -7.19%
- CC(C)(C)c1ccc(OCCSc2nc3ccccc3n2CC(=O)O)cc1 — lower, 14.3%
- O=C1CC(C(=O)N2CCOCC2)C2(CCCC2)O1 (stereo not shown) — lower, 8.55%
- O=C(O)c1cc2n(n1)C(C(F)(F)F)CC(C1CC1)N2 (stereo not shown) — lower, 1.99%
- CSc1ccc(Cl)c(C(=O)Nc2ccc(OCC(N)=O)cc2)c1 — lower, 6.79%
- C=CCN1C(=O)/C(=C2/Sc3ccc(OC)cc3N2CC)SC1=S — higher, 18.8%
- Cl.O=C(c1ccccc1)N1CCN(CC(O)COc2cccc3ccccc23)CC1 (stereo not shown) — lower, 10.3%
- O=C1NC2(CCCCC2)C(=O)N1CC(=O)N(Cc1ccccc1)c1ccccc1 — lower, 2.86%
- Cc1c(O)ccc(NS(=O)(=O)c2ccccc2)c1C — lower, 13%
- CC(=O)Nc1ccc(SCCN2CC[C@@H](C(C)(C)C)CCC2=O)cc1 — lower, 12.8%
- Cc1cc(C)c(-c2csc(Cc3nc(-c4cc5ccccc5oc4=O)cs3)n2)cc1C — lower, -0.0926%
- CC1=C(N2CCCCC2)CCC1=O — lower, 8.53%
- COC(=O)NNC(=O)C12CC3CC(CC(C3)C1)C2 — lower, 4.29%
- CCN(CC)S(=O)(=O)c1ccc(/C=C/C(=O)OCC(=O)NCc2ccc3c(c2)OCO3)cc1 — lower, 10.4%
- COc1ccc(CNC(=O)C(OC(=O)c2ccco2)c2ccccc2F)cc1 (stereo not shown) — lower, 12.8%
- CCc1c(C)sc(NC(=O)c2cc(-c3cc(OC)ccc3OC)on2)c1C#N — lower, 2.61%
- C=CCN1c2ccccc2[C@]23C[C@@H](C(=O)OC)N(C(=O)c4ccco4)C2=NC(C(=O)OC)=C(C(=O)OC)[C@H]13 — lower, -1.19%
- Cc1onc(-c2ccccc2Cl)c1C(=O)Nc1ncn[nH]1 — lower, 7.08%
- Cc1[nH]c(=O)[nH]c(=O)c1S(=O)(=O)N1c2ccc(F)cc2CCC1C (stereo not shown) — lower, 10.5%
- Cc1nn(C)c(C)c1CNC(=O)/C=C/c1ccccc1F — lower, 12.1%
- CC1=C/C(=N\S(=O)(=O)c2ccccc2)C(C(C)C)=CC1=O — lower, 14%
- C/C(=N/NS(=O)(=O)c1ccc(Br)cc1)c1c[nH]c2ccccc12 — lower, 13.5%
- O=C(NCc1cccs1)C(=O)NCC(c1ccco1)N1CCN(c2ccc(F)cc2)CC1 (stereo not shown) — lower, 9.68%
- COc1ccc(NC(=O)CN(C)C(=O)c2ccc3c(c2)OCCO3)cc1 — higher, 27.2%
- COc1ccc(Nc2nnc(SCC(=O)N3CCCC3)s2)cc1 — lower, 7.15%
- Cc1ccccc1NC(=O)CSc1nc2c(c(-c3ccco3)c1C#N)CCCC2 — lower, -9.46%
- COc1ccc(C)cc1S(=O)(=O)N1CCC(C(=O)N2CCN(C)CC2)CC1 — lower, 12.4%
- Cc1cccc2c1N(N=O)CCC2 — lower, 2.91%
- COC(=O)/C(C#N)=C/c1c(N2CCN(Cc3ccc4c(c3)OCO4)CC2)nc2c(C)cccn2c1=O — lower, 3.53%
- CCN(CCCl)Cc1ccccc1Br.Cl — the same, 16.6%
- O=[N+]([O-])c1ccc(C2CC(c3ccccc3)=Nc3ccccc3S2)cc1 (stereo not shown) — lower, 4.39%
- COc1ccc(CNC(=O)c2c(O)c3cccc4c3n(c2=O)CCC4)cc1OC — higher, 17.6%
- O=C(OC1CCOC1=O)c1cc(-c2cccs2)nc2ccccc12 (stereo not shown) — lower, 12.1%
- CCC(=O)N1c2ccc(S(=O)(=O)CCC(=O)NCc3ccc4c(c3)OCO4)cc2CC1C (stereo not shown) — lower, 13.2%
- N#Cc1cccc(NC(=O)CN2NS(=O)(=O)c3ccccc3C2=O)c1 — lower, 12.2%
- CC1CCc2sc(C(=O)OCC(=O)NCc3ccccc3)cc2C1 (stereo not shown) — higher, 19.7%
- Cc1ccccc1-c1nc(CS(=O)(=O)CC(=O)NCCCN2CC(C)CC(C)C2)c(C)o1 (stereo not shown) — lower, -4.36%
- NC(=O)C1CCN(C(=O)COc2ccc3ccccc3c2Br)CC1 — lower, -2.9%
- Cc1cccc(N2CCN(C(=O)C3CCN(S(=O)(=O)c4cccc5nsnc45)CC3)CC2C)c1 (stereo not shown) — lower, 12.1%
- CCC(Oc1ccccc1)C(=O)Nc1ncc([N+](=O)[O-])s1 (stereo not shown) — lower, 13.3%
- Cc1ccc2cc(CCNC(=O)C(C)C)c(=O)[nH]c2c1 — lower, 10.6%
- Cc1cccc(NS(=O)(=O)c2cc(Cl)ccc2Cl)n1 — higher, 20.5%
- COc1ccccc1CNC(=O)CN1C(=O)c2cccc(N)c2C1=O — lower, 14.6%
- COC(=O)Cc1c(O)ccn(CCc2c[nH]c3ccc(OC)cc23)c1=O — lower, 2.61%
- O=C(c1cccc(S(=O)(=O)N2CCOCC2)c1)N(CCO)Cc1ccccc1 — lower, -3.66%
- Cc1ccc(/C=C2\SC(=S)N(CCCC(=O)Nc3ccccn3)C2=O)cc1 — lower, 3.9%
- CCN(C(=O)C1CCN(c2nc(-c3ccc(OC)cc3)no2)CC1)c1ccc(OC)cc1 — lower, 0.576%
- COc1ccc(S(=O)(=O)N2CCOCC2)cc1NC(=O)CC1CC2CCC1C2 (stereo not shown) — lower, 9.21%
- O=C(O)Cc1nc(-c2cccnc2)sc1-c1ccc(Br)cc1 — lower, 12.3%
- CC(C)CN1C(=O)c2ccc(C(=O)NCc3ccc4c(c3)OCO4)cc2C1=O — lower, 11.9%
- Cc1cc(Nc2ccc(F)c(Cl)c2)n2nc(C)nc2n1 — lower, 0.637%
- COc1cccc(C2C3=C(CCCC3=O)Nc3nc(-c4cc(OC)c(OC)c(OC)c4)nn32)c1 (stereo not shown) — lower, -1.48%
- O=C(CNC(=O)c1ccc(Cl)cc1Cl)OCc1ccccc1 — higher, 20.4%
- O=c1[nH]c(=S)[nH]c2sccc12 — lower, 10%
- COc1ccc(Br)c2oc(SC)cc(=O)c12 — lower, 8.07%
- Cc1cc(C)c(S(=O)(=O)N2CCCOC2CNC(=O)C(=O)NCc2ccco2)c(C)c1 (stereo not shown) — lower, 10.7%
- CN(C)CCCn1c(N)c(C#N)c2nc(C#N)c(C#N)nc21 — lower, 11.4%
- C=CCn1c(CCCNC(=O)C(C)(C)C)nc2ccccc21 — lower, 13.6%
- C/C(=N\NC(=O)CSc1nnc(C)s1)c1ccc(O)cc1 — lower, 11.2%
- CCC/C=C(\CCC)C(NS(=O)(=O)c1cccc2cccnc12)c1ccc(C(=O)OC)cc1 (stereo not shown) — lower, 12.9%
- CC(/C=C1\SC(=S)N(C(C(=O)O)C(C)C)C1=O)=C\c1ccccc1 (stereo not shown) — lower, 9.28%
- O=C(NCCN1CCN(Cc2ccccc2)CC1)Nc1cc(Cl)cc(Cl)c1 — lower, -15.5%
- COc1ccc(CCNC(=O)Cn2ccc3cc(S(=O)(=O)N4CCCC4)ccc32)cc1OC — lower, 4.41%
- COC(=O)NCC(c1cccnc1)N1CCN(c2ccccc2F)CC1 (stereo not shown) — lower, 7.13%
- CCOc1ccc(S(=O)(=O)N2CCN(Cc3ccccc3)CC2)cc1 — lower, 14.6%
- CN(C)/C=C1\C(=O)N(c2ccc(Oc3ccccc3)cc2)CS1=O (stereo not shown) — lower, -1.41%
- O=C(CSc1nnc(-c2ccco2)n1Cc1ccccc1)OC1CCCCC1 — lower, -8.46%
- CCC(CC)=N/N=C/c1c(O)n(CC)c2cc(C3=NNC(=O)CC3)ccc12 — lower, 16.1%
- COc1ccc(NC(=O)CSc2ccccn2)cc1 — higher, 18%
- Cc1cc(NC(=O)c2cccc(S(=O)(=O)N3c4ccccc4CC3C)c2)no1 (stereo not shown) — lower, -7.64%
- Cc1cc(N2CCN(c3cccc(C)c3C)CC2)nc(-c2ccccc2)n1 — lower, -4.61%
- Cc1nc(C)n(C(C)CNS(=O)(=O)c2ccc(Cl)cc2)n1 (stereo not shown) — lower, 11.7%
- CCc1ccccc1NS(=O)(=O)c1ccc2[nH]cc(C(=O)NCC3CCCO3)c(=O)c2c1 (stereo not shown) — lower, 6.57%
- O=C1CCC(C(=O)OCc2c(Cl)cccc2Cl)N1 (stereo not shown) — lower, 9.54%
- O=C(NNS(=O)(=O)c1ccc([N+](=O)[O-])cc1)c1cnn(-c2ccccc2)c1-n1cccc1 — lower, 6.21%
- COc1cccc(C(=O)N2CCOCC2)c1OC — lower, 11%
- COC(=O)C1CN(C#N)N(c2ccc(Cl)cc2)C12c1ccccc1-c1ccccc12 (stereo not shown) — lower, 13.4%
- COc1ccc(C(=O)c2sc3nc(C)cc(-c4cccs4)c3c2N)cc1OC — lower, 6.28%

— publication PMC4336329 (PLoS ONE, 2015)
